From the supplement of paper PMC8728848
Some of the results follow.

Columns and labels:
Assay in all cases: glycan array binding signal (z-score within array); higher = stronger binding
Settings in all cases: glycan notation: IUPAC condensed, linker removed
[1] = molecular target: Fuc(a1-3)[Gal3S(b1-4)]GlcNAc
Outline: (§1)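 The binding signal is a Z-score computed within each array and averaged over linkers. Arrays of the same protein sequence at different concentrations or buffers were also averaged together. Data originate from 3228 arrays in the Consortium for Functional Glycomics database, kept only where the protein sequence was available.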

[2] = molecular target: Fuc(a1-3)[Gal3S(b1-4)]GlcNAc6S
Outline: as §1

[3] = molecular target: Fuc(a1-3)[GalNAc(b1-4)]GlcNAc
Outline: as §1

Fuc(a1-4)GlcNAc = molecular target: Fuc(a1-4)GlcNAc
Outline: as §1

Fuc(b1-3)GlcNAc = molecular target: Fuc(b1-3)GlcNAc
Outline: as §1

Gal(a1-2)Gal = molecular target: Gal(a1-2)Gal
Outline: as §1

Gal(a1-3)Gal = molecular target: Gal(a1-3)Gal
Outline: as §1

Gal(a1-3)Gal(b1-3)GlcNAc = molecular target: Gal(a1-3)Gal(b1-3)GlcNAc
Outline: as §1

[4] = molecular target: Gal(a1-3)Gal(b1-3)GlcNAc(b1-2)Man(a1-3)[Gal(a1-3)Gal(b1-3)GlcNAc(b1-2)Man(a1-6)]Man(b1-4)GlcNAc(b1-4)GlcNAc
Outline: as §1

[5] = molecular target: Gal(a1-3)Gal(b1-3)[Fuc(a1-4)]GlcNAc(b1-2)Man(a1-3)[Gal(a1-3)Gal(b1-3)[Fuc(a1-4)]GlcNAc(b1-2)Man(a1-6)]Man(b1-4)GlcNAc(b1-4)GlcNAc
Outline: as §1

Gal(a1-3)Gal(b1-4)Glc = molecular target: Gal(a1-3)Gal(b1-4)Glc
Outline: as §1

Gal(a1-3)Gal(b1-4)GlcNAc = molecular target: Gal(a1-3)Gal(b1-4)GlcNAc
Outline: as §1

[6] = molecular target: Gal(a1-3)Gal(b1-4)GlcNAc(b1-3)GalNAc
Outline: as §1

[7] = molecular target: Gal(a1-3)Gal(b1-4)[Fuc(a1-3)]GlcNAc
Outline: as §1

[8] = molecular target: Gal(a1-3)Gal(b1-4)[Fuc(a1-3)]GlcNAc(b1-2)Man(a1-3)[Gal(a1-3)Gal(b1-4)[Fuc(a1-3)]GlcNAc(b1-2)Man(a1-6)]Man(b1-4)GlcNAc(b1-4)GlcNAc
Outline: as §1

Gal(a1-3)GalNAc = molecular target: Gal(a1-3)GalNAc
Outline: as §1

[9] = molecular target: Gal(a1-3)[Gal(a1-4)]Gal(b1-4)GlcNAc
Outline: as §1

[10] = molecular target: Gal(a1-4)Gal(b1-3)GlcNAc(b1-2)Man(a1-3)[Gal(a1-4)Gal(b1-3)GlcNAc(b1-2)Man(a1-6)]Man(b1-4)GlcNAc(b1-4)GlcNAc
Outline: as §1

Gal(a1-4)Gal(b1-4)Glc = molecular target: Gal(a1-4)Gal(b1-4)Glc
Outline: as §1

Gal(a1-4)Gal(b1-4)GlcNAc = molecular target: Gal(a1-4)Gal(b1-4)GlcNAc
Outline: as §1

[11] = molecular target: Gal(a1-4)Gal(b1-4)GlcNAc(b1-2)Man(a1-3)[Gal(a1-4)Gal(b1-4)GlcNAc(b1-2)Man(a1-6)]Man(b1-4)GlcNAc(b1-4)GlcNAc
Outline: as §1

[12] = molecular target: Gal(a1-4)Gal(b1-4)GlcNAc(b1-3)Gal(b1-4)Glc
Outline: as §1

Gal(a1-4)GlcNAc = molecular target: Gal(a1-4)GlcNAc
Outline: as §1

Gal(a1-6)Glc = molecular target: Gal(a1-6)Glc
Outline: as §1

Gal(b1-2)Gal = molecular target: Gal(b1-2)Gal
Outline: as §1

Gal(b1-3)Gal = molecular target: Gal(b1-3)Gal
Outline: as §1

Gal(b1-3)Gal(b1-4)GlcNAc = molecular target: Gal(b1-3)Gal(b1-4)GlcNAc
Outline: as §1

[13] = molecular target: Gal(b1-3)Gal(b1-4)GlcNAc(b1-2)Man(a1-3)[Gal(b1-3)Gal(b1-4)GlcNAc(b1-2)Man(a1-6)]Man(b1-4)GlcNAc(b1-4)GlcNAc
Outline: as §1

Gal(b1-3)GalNAc = molecular target: Gal(b1-3)GalNAc
Outline: as §1

[14] = molecular target: Gal(b1-3)GalNAc(a1-3)[Fuc(a1-2)]Gal(b1-4)Glc
Outline: as §1

[15] = molecular target: Gal(b1-3)GalNAc(a1-3)[Fuc(a1-2)]Gal(b1-4)GlcNAc
Outline: as §1

[16] = molecular target: Gal(b1-3)GalNAc(b1-3)Gal(a1-4)Gal(b1-4)Glc
Outline: as §1

[17] = molecular target: Gal(b1-3)GalNAc(b1-4)Gal(b1-4)Glc
Outline: as §1

[18] = molecular target: Gal(b1-3)GalNAc(b1-4)[Neu5Ac(a2-3)]Gal(b1-4)Glc
Outline: as §1

Gal(b1-3)GlcNAc = molecular target: Gal(b1-3)GlcNAc
Outline: as §1

[19] = molecular target: Gal(b1-3)GlcNAc(a1-6)Gal(b1-4)GlcNAc
Outline: as §1

[20] = molecular target: Gal(b1-3)GlcNAc(b1-2)Man(a1-3)[Gal(b1-3)GlcNAc(b1-2)Man(a1-6)]Man(b1-4)GlcNAc(b1-4)GlcNAc
Outline: as §1

B1: exo-alpha-sialidase (Propionibacterium acnes), Q6A7G1 (protein)
chain: GSHMSGRAPAPVAATTQPKLVTGDITSTDQSGTNLFFGKKIVRNARGAIMKVDRTWPAAVPAPLPDVRADSSTRMLLGPVVDLAVNEHPEGVFYRIPALATASNGDLLASYDLRPGSAGDAPNPNSIVQRRSRDNGRTWGPQTVIHAGTPGRRKVGYSDPSYLVDPATGRILNFHVKSYDRGFATSEVGTDPDDRHVLHAEVSTSTDNGHTWTHRDITREITSDPTTRTRFVASGQGIALLHGPHAGRLIAQMTVRNSVGQQAQSIYSDDHGITWHAGNPVGRMMDENKVVELSDGTLMLNSRDAARSGRRKVAYSQDGGLTWGPVKLVDDLIDPTNNAQIIRAYPNARAGSAKARILLFTNARNATERVNGTLSVSCDDGRTWVSHQTYMPGEVGYTTAAVQSDGALGVLWERDGIRYSTIPMGWLNSVCPLAPSGRPTSGKPTSGTSLPPTAT
- glycan array binding signal (z-score) [1]: -0.348
- glycan array binding signal (z-score) [2]: -0.19
- glycan array binding signal (z-score) [3]: -0.307
- glycan array binding signal (z-score) (Fuc(a1-4)GlcNAc): -0.332
- glycan array binding signal (z-score) (Fuc(b1-3)GlcNAc): -0.252
- glycan array binding signal (z-score) (Gal(a1-2)Gal): -0.331
- glycan array binding signal (z-score) (Gal(a1-3)Gal): -0.339
- glycan array binding signal (z-score) (Gal(a1-3)Gal(b1-3)GlcNAc): -0.273
- glycan array binding signal (z-score) [4]: -0.211
- glycan array binding signal (z-score) [5]: -0.357
- glycan array binding signal (z-score) (Gal(a1-3)Gal(b1-4)Glc): -0.338
- glycan array binding signal (z-score) (Gal(a1-3)Gal(b1-4)GlcNAc): -0.341
- glycan array binding signal (z-score) [6]: -0.36
- glycan array binding signal (z-score) [7]: -0.342
- glycan array binding signal (z-score) [8]: -0.228
- glycan array binding signal (z-score) (Gal(a1-3)GalNAc): -0.32
- glycan array binding signal (z-score) [9]: -0.349
- glycan array binding signal (z-score) [10]: -0.363
- glycan array binding signal (z-score) (Gal(a1-4)Gal(b1-4)Glc): -0.366
- glycan array binding signal (z-score) (Gal(a1-4)Gal(b1-4)GlcNAc): -0.365
- glycan array binding signal (z-score) [11]: -0.361
- glycan array binding signal (z-score) [12]: -0.337
- glycan array binding signal (z-score) (Gal(a1-4)GlcNAc): -0.348
- glycan array binding signal (z-score) (Gal(a1-6)Glc): -0.278
- glycan array binding signal (z-score) (Gal(b1-2)Gal): -0.295
- glycan array binding signal (z-score) (Gal(b1-3)Gal): -0.314
- glycan array binding signal (z-score) (Gal(b1-3)Gal(b1-4)GlcNAc): -0.353
- glycan array binding signal (z-score) [13]: -0.36
- glycan array binding signal (z-score) (Gal(b1-3)GalNAc): -0.298
- glycan array binding signal (z-score) [14]: -0.337
- glycan array binding signal (z-score) [15]: -0.352
- glycan array binding signal (z-score) [16]: -0.324
- glycan array binding signal (z-score) [17]: -0.337
- glycan array binding signal (z-score) [18]: -0.331
- glycan array binding signal (z-score) (Gal(b1-3)GlcNAc): -0.338
- glycan array binding signal (z-score) [19]: -0.353
- glycan array binding signal (z-score) [20]: -0.364
